From PMC4336329 (PLoS ONE, 2015)
The campaign covered roughly 310,000 compounds. About 2,200 (0.71%) showed an effect of 50% or more. Effects have a minus sign here. The list shows a part of the results.

Biological target: human ether-à-go-go-related gene (hERG) potassium channel (human, UniProt Q12809)
Assay: primary screen, population patch clamp on CHO cells stably expressing hERG

human ether-à-go-go-related gene (hERG) potassium channel, sequence (Q12809 whole entry, looked up): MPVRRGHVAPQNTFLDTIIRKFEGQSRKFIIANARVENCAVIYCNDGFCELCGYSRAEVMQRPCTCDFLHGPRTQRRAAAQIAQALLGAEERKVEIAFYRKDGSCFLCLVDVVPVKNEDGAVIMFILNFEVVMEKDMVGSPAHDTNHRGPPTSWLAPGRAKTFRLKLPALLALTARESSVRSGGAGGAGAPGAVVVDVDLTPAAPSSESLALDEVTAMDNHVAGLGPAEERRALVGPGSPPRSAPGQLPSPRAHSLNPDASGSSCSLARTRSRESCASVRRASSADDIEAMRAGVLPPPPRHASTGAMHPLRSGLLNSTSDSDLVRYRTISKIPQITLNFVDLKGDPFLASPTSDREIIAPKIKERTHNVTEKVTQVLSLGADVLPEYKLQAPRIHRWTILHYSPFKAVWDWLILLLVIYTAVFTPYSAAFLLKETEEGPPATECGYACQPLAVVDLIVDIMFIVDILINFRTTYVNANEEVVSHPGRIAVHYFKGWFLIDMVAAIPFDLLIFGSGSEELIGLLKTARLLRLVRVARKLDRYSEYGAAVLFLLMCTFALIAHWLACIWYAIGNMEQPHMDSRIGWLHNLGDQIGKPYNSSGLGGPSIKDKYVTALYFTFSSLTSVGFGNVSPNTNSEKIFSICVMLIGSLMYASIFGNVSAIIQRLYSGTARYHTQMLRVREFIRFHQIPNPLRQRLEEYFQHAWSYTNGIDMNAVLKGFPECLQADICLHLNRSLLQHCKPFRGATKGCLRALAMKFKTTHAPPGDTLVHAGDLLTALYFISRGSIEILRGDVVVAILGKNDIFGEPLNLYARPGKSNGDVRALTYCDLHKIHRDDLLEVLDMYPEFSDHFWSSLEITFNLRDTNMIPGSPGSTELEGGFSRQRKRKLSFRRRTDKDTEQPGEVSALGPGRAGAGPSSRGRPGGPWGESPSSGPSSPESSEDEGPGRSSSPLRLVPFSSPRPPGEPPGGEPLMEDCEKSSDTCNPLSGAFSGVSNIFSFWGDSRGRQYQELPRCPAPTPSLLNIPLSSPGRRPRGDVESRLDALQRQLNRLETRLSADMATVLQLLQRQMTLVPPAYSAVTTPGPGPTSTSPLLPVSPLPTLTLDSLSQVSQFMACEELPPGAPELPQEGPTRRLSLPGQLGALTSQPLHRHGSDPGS

SMILES	hERG current change (%, negative = inhibition) at 1uM
O=C(NC1CCN(Cc2ccccc2Cl)CC1)c1ccccc1	10%
CN(C)c1ccccc1C(=O)c1ccccc1N(C)C	4.96%
O=C(C[n+]1cc[nH]c1)c1ccc(Cl)cc1.[Cl-]	9.68%
CSCc1ccc(C(=O)N2CCCC(Nc3ccc4c(c3)OCCO4)C2)o1 (stereo not drawn)	3.83%
O=C(Cn1cncn1)N/N=C/c1cccc(Cl)c1	14.8%
CCOc1ccc(NC(=O)CCCn2c(=S)[nH]c3ccsc3c2=O)cc1	10.1%
O=C(N1CCCC1)C12CC3CCC(CC(C3)C1)C2	11.4%
CN(C)c1nc(OCCNC(=O)COc2ccc(Cl)cc2Cl)nc(N2CCOCC2)n1	2%
COC(=O)C(NC=O)C(O)(Cc1ccccc1)C(F)(F)F (stereo not drawn)	6.35%
CSc1ncccc1C(=O)OCc1c(F)cccc1Cl	14.2%
CN(C)S(=O)(=O)Oc1cccc(C(=O)Nc2cccc(Cl)c2)c1	6.68%
COC(=O)C1=C(c2ccc(F)cc2OCc2ccccc2)C[C@@H]2CC[C@H]1N2C(=O)NCCNC(C)=O	16.4%
Cc1cc(C)n(/N=C/c2ccc(C(C)C)cc2)c(=O)c1C#N	13.2%
C/C(=N\NC(N)=O)c1ccccc1Cl	2.37%
CCCC(=O)Nc1cccc(NC(=S)NC(=O)C(C)Oc2ccc(Cl)cc2Cl)c1 (stereo not drawn)	-1.84%
CCC(=O)NC(=S)Nc1ccc(NC(=O)c2ccc(C)c([N+](=O)[O-])c2)cc1	11.2%
Cc1ccc(-c2cc(C(=O)N3CCN(C(=O)c4ccco4)CC3)[nH]n2)cc1C	14.4%
CN(Cc1ccccc1)C(=O)COc1ccccc1Cl	11%
O=C(Nc1ccc(S(=O)(=O)Nc2ncccn2)cc1)C1=COCCO1	4.77%

SMILES	hERG current change (%, negative = inhibition) at 1uM
O=C(NCc1ccc2c(c1)OCO2)c1nn(-c2ccccc2)c(=O)c2ccccc12	-10.7%
C1COCCNCCOCCOCCN1	7.88%
CCOC(=O)c1nnn(-c2nonc2N)c1CNc1ccccc1	-3.77%
O=C(CN(C(=O)Cn1nnc(-c2cccs2)n1)c1ccc2c(c1)OCCO2)NCc1ccccc1	8.53%
Cc1nnc(SCc2ccccn2)n(N)c1=O	8.41%
CCOC(=O)N1CCC(c2[nH][nH]c(=O)c2C)CC1	14.9%
CCC(C)(C)NC(=O)c1cc([N+](=O)[O-])ccc1N1CCCCC1	6.73%
COc1ccc(C2=NN(C(=O)COC(=O)c3ccc(NC(=O)CC#N)cc3)C(c3ccco3)C2)cc1 (stereo not drawn)	8.45%
CC(=O)Nc1ccc(C(=O)N2CCN(S(=O)(=O)c3ccc4c(c3)OCCCO4)CC2)cc1	13.9%
Cn1cc(C2CC(c3ccccc3)=NN2C(=O)c2ccccc2)c2ccccc21 (stereo not drawn)	-9.01%
CCOc1ccccc1NC(=O)c1cc(S(=O)(=O)NCc2ccco2)ccc1F	2.3%
Cn1c(COc2ccc(Cl)cc2)nnc1SCc1ncc(-c2ccccc2)o1	-31.2%
CN(C)C(=O)CCc1nc2sc3c(c2c(=O)[nH]1)CCCC3	10.3%
CCC(=O)Nc1cccc(C2=NOC3(C2)C[C@@H](C(N)=O)N(C(=O)C2(C)CC2)C3)c1 (stereo partly drawn)	12.8%
Cc1cc(SCC(=O)N(C)C2CCS(=O)(=O)C2)nc2c(C)cccc12 (stereo not drawn)	15%
COc1ccc(CC(=O)NCC(C)(C)N2CCOCC2)cc1	17.2%
COc1ccc(C2c3ccc(O)cc3Oc3ncn(CC(C)C)c(=N)c32)cc1 (stereo not drawn)	-22.2%
Cc1ccc(C(=O)c2coc3ccc(O)c(CN(C)C)c23)cc1.Cl	-16.2%
Cc1cc(C)n(CC(C)Nc2nc3nonc3nc2N2CCCCC2)n1 (stereo not drawn)	15.4%

SMILES	hERG current change (%, negative = inhibition) at 1uM
COc1cc(C(C)=O)ccc1OCCCOc1cccc2cccnc12	8.17%
CN(/N=C/c1ccc(O)cc1O)c1nc(-c2ccccc2)cc(-c2ccccc2)n1	9.81%
Cc1cc(C)nc(N(C#N)S(=O)(=O)c2ccccc2)n1	13%
Cc1cc(C(=O)Nc2ccc(F)cc2C)cs1	-0.428%
COc1cc(-c2nc(C)c(C(C)=O)n2O)ccc1OCC(=O)Nc1ccc(Cl)cc1	11.2%
CCOc1ccc(NC(=O)C2CCN(S(=O)(=O)c3c(C)noc3C)CC2)cc1	1.82%
COc1cc(C(C(=O)NC(C)(C)C)N(C(=O)CNC(=O)c2cccs2)c2cccnc2)cc(OC)c1OC (stereo not drawn)	21.9%
CCCc1nnc(SCC(=O)N2CCCC2)n1Cc1ccco1	6.76%
O=C(Nc1c(-c2ccccc2)nc2ncccn12)c1cc2ccccc2oc1=O	2.02%
O=C(C1Cc2ccccc2CN1C(=O)c1ccco1)N1CCN(c2ccccc2)CC1 (stereo not drawn)	-3.04%
CCSc1nnc(NC(=O)c2cccs2)s1	-19.4%
O=C(NCCN1CCOCC1)NC1(C(F)(F)F)Oc2ccc(Cl)cc2O1 (stereo not drawn)	-2.19%
CC1CCCC(C)N1C(=O)C1CC(c2ccc(F)cc2)=NO1 (stereo not drawn)	-3.84%
O=C(Nc1ccc(CN2CCOCC2)cc1)c1cccs1	-1.43%
COc1cccc(-n2ccn(CC(=O)NCCc3ccccc3)c(=O)c2=O)c1	12.4%
Cc1ccc(C(=O)C(OC(=O)CCC(=O)Nc2cccc(C)c2)c2ccccc2)cc1 (stereo not drawn)	5.88%
Cc1cc2ncn(CCCCOc3ccccc3)c2cc1C	10.6%
CC(C)COC(=O)c1cc(-c2ccc(/C=N/n3cnnc3)o2)ccc1Cl	7.71%
Cc1cc(C)c(NC(=O)c2cc(=O)c3ccccc3o2)c(C)c1	-12.8%
